pIC50: −log10 of the molar value. Lines with a small IC50 respond at low doses; where the fit passes the top or lowest dose, that dose stands as a limit. AUC, from the same fit, is the share of area under the viability curve across the 256-fold dose range; it is 1 without any effect and falls as sensitivity rises. An inferred top dose was derived from the fitted curves, not read from the paper.
Columns and labels:
Experiment in all cases: Viability of human cancer cell lines after 72 h of drug (GDSC screen)
QL-XI-92 = compound: C=CC(=O)Nc1cc(NC(=O)c2ccc(C)c(NC(=O)c3ccno3)c2)cc(C(F)(F)F)c1 [QL-XI-92]; conditions: top dose 10.24 µM; top dose inferred
Procedure: (§1)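 Human cancer cell lines in 384-well plates, medium with 10% serum, drug for 72 h over a 256-fold dose range (nine 2-fold or five 4-fold steps up to the top dose). Adherent lines were fixed and stained with the nucleic acid dye Syto60, suspension lines read with resazurin; signal relative to control wells, capped at 0 and 100%. One two-parameter sigmoid per drug and line, fitted in a mixed model over all curves with the slope shared within a line.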

Vinorelbine = compound: CCC1=C[C@@H]2CN(C1)Cc1c([nH]c3ccccc13)[C@@](C(=O)OC)(c1cc3c(cc1OC)N(C)[C@H]1[C@@](O)(C(=O)OC)[C@H](OC(C)=O)[C@]4(CC)C=CCN5CC[C@]31[C@@H]54)C2 [Vinorelbine]; conditions: top dose 0.064 µM; top dose inferred
Procedure: as §1

AG-014699 = compound: CNCc1ccc(-c2[nH]c3cc(F)cc4c3c2CCNC4=O)cc1 [AG-014699]; conditions: top dose 5 µM; top dose inferred
Procedure: as §1

XL-184 = compound: COc1cc2nccc(Oc3ccc(NC(=O)C4(C(=O)Nc5ccc(F)cc5)CC4)cc3)c2cc1OC [XL-184]; conditions: top dose 5.12 µM; top dose inferred
Procedure: as §1

WHI-P97 = compound: COc1cc2ncnc(Nc3cc(Br)c(O)c(Br)c3)c2cc1OC [WHI-P97]; conditions: top dose 10.24 µM; top dose inferred
Procedure: as §1

Phenformin = compound: N=C(N)NC(=N)NCCc1ccccc1 [Phenformin]; conditions: top dose 4000 µM; top dose inferred
Procedure: as §1

EHT 1864 = compound: O=c1cc(CN2CCOCC2)occ1OCCCCCSc1ccnc2cc(C(F)(F)F)ccc12 [EHT 1864]; conditions: top dose 10 µM; top dose inferred
Procedure: as §1

NU-7441 = compound: O=c1cc(N2CCOCC2)oc2c(-c3cccc4c3sc3ccccc34)cccc12 [NU-7441]; conditions: top dose 2 µM; top dose inferred
Procedure: as §1

Cell Line	AUC (QL-XI-92)	pIC50 (QL-XI-92)	AUC (Vinorelbine)	pIC50 (Vinorelbine)	AUC (AG-014699)	pIC50 (AG-014699)	AUC (XL-184)	pIC50 (XL-184)	AUC (WHI-P97)	pIC50 (WHI-P97)	AUC (Phenformin)	pIC50 (Phenformin)	AUC (EHT 1864)	pIC50 (EHT 1864)	AUC (NU-7441)	pIC50 (NU-7441)
22RV1 (prostate, adherent)	0.959	< 4.99	0.632	8.00	0.927	< 5.30	0.867	< 5.29	0.979	< 4.99	0.975	< 2.40	0.934	< 5.00	0.977	< 5.70
786-0 (kidney, adherent)	0.908	< 4.99	0.489	8.43	0.979	< 5.30	0.928	< 5.29	0.937	< 4.99	0.667	3.16	0.841	5.21	0.938	< 5.70
A172 (glioma, adherent)	0.916	< 4.99	0.691	7.87	0.931	< 5.30	0.915	< 5.29	0.977	< 4.99	0.583	3.38	0.912	< 5.00	0.947	< 5.70
A375 (melanoma, adherent)	0.991	< 4.99	0.86	7.41	0.948	< 5.30	–	–	0.986	< 4.99	–	–	0.98	< 5.00	0.933	< 5.70
A431 (skin, adherent)	0.877	5.02	0.46	8.50	0.947	< 5.30	–	–	0.864	5.08	0.533	3.51	0.98	< 5.00	0.971	< 5.70
A673 (rhabdomyosarcoma, adherent)	0.986	< 4.99	0.613	8.10	0.892	5.32	0.965	< 5.29	0.985	< 4.99	0.897	< 2.40	0.962	< 5.00	0.987	< 5.70
BCPAP (thyroid, adherent)	0.967	< 4.99	0.439	8.56	0.959	< 5.30	0.91	< 5.29	0.988	< 4.99	0.964	< 2.40	0.961	< 5.00	0.963	< 5.70
BHY (head and neck, adherent)	0.93	< 4.99	0.654	7.97	0.979	< 5.30	0.909	< 5.29	0.839	5.15	0.582	3.38	0.957	< 5.00	0.971	< 5.70
BPH-1 (prostate, adherent)	0.864	< 4.99	0.438	8.58	0.887	< 5.30	0.829	5.44	0.763	5.39	0.888	< 2.40	0.894	< 5.00	0.928	< 5.70
BT-20 (breast, adherent)	0.93	< 4.99	0.696	7.79	0.96	< 5.30	0.973	< 5.29	0.961	< 4.99	0.819	2.52	0.932	< 5.00	0.98	< 5.70
BxPC-3 (pancreas, adherent)	0.983	< 4.99	0.521	8.34	0.953	< 5.30	0.892	< 5.29	0.974	< 4.99	–	–	0.973	< 5.00	0.976	< 5.70
CAL-54 (kidney, adherent)	0.985	< 4.99	0.917	< 7.19	0.91	< 5.30	0.849	5.32	0.972	< 4.99	0.855	2.40	0.966	< 5.00	0.935	< 5.70
CAL-85-1 (breast, adherent)	0.93	< 4.99	0.451	8.55	0.979	< 5.30	0.9	< 5.29	0.824	5.07	0.909	< 2.40	0.967	< 5.00	0.981	< 5.70
COLO-205 (large intestine, suspension)	0.98	< 4.99	0.368	8.76	0.975	< 5.30	–	–	0.985	< 4.99	0.789	2.76	0.899	< 5.00	0.985	< 5.70
ChaGo-K-1 (non-small cell lung carcinoma, adherent)	0.952	< 4.99	0.491	8.42	0.966	< 5.30	0.98	< 5.29	0.98	< 4.99	0.83	2.51	0.977	< 5.00	0.975	< 5.70
DAN-G (pancreas, adherent)	0.984	< 4.99	0.985	< 7.19	0.976	< 5.30	0.97	< 5.29	0.991	< 4.99	0.785	2.83	0.992	< 5.00	0.963	< 5.70
DU-145 (prostate, adherent)	0.961	< 4.99	0.539	8.29	0.935	< 5.30	0.98	< 5.29	0.972	< 4.99	0.969	< 2.40	0.974	< 5.00	0.984	< 5.70
EKVX (lung adenocarcinoma, adherent)	0.97	< 4.99	0.88	< 7.19	0.939	< 5.30	0.958	< 5.29	0.85	< 4.99	0.672	2.88	0.923	< 5.00	0.863	< 5.70

Cell Line	AUC (QL-XI-92)	pIC50 (QL-XI-92)	AUC (Vinorelbine)	pIC50 (Vinorelbine)	AUC (AG-014699)	pIC50 (AG-014699)	AUC (XL-184)	pIC50 (XL-184)	AUC (WHI-P97)	pIC50 (WHI-P97)	AUC (Phenformin)	pIC50 (Phenformin)	AUC (EHT 1864)	pIC50 (EHT 1864)	AUC (NU-7441)	pIC50 (NU-7441)
GAMG (glioma, adherent)	0.843	5.11	0.655	7.96	0.903	< 5.30	0.898	< 5.29	0.985	< 4.99	0.781	2.76	0.942	< 5.00	0.91	< 5.70
H2591 (mesothelioma, adherent)	0.976	< 4.99	0.699	7.76	0.967	< 5.30	0.922	< 5.29	0.96	< 4.99	0.962	< 2.40	0.919	< 5.00	0.963	< 5.70
H3255 (lung adenocarcinoma, adherent)	0.98	< 4.99	0.548	8.26	0.983	< 5.30	0.982	< 5.29	0.6	5.90	0.955	< 2.40	0.967	< 5.00	0.958	< 5.70
HT-29 (large intestine, adherent)	0.98	< 4.99	0.435	8.58	0.939	< 5.30	–	–	0.987	< 4.99	0.834	2.59	0.988	< 5.00	0.962	< 5.70
HT-1080 (fibrosarcoma, adherent)	0.975	< 4.99	0.446	8.54	0.888	5.33	–	–	0.989	< 4.99	0.957	< 2.40	0.977	< 5.00	0.945	< 5.70
IGR-37 (melanoma, adherent)	0.989	< 4.99	0.687	7.90	0.989	< 5.30	0.896	< 5.29	0.939	< 4.99	–	–	0.965	< 5.00	0.923	< 5.70
LN-229 (glioma, adherent)	0.977	< 4.99	0.832	7.39	–	–	–	–	0.964	< 4.99	0.86	2.48	0.96	< 5.00	0.988	< 5.70
LoVo (large intestine, adherent)	0.985	< 4.99	0.613	8.08	–	–	–	–	0.987	< 4.99	0.235	4.37	–	–	0.777	6.09
MDA-MB-157 (breast, adherent)	0.987	< 4.99	0.871	7.20	0.957	< 5.30	–	–	0.985	< 4.99	0.798	2.71	0.955	< 5.00	0.912	< 5.70
MDA-MB-231 (breast, adherent)	0.962	< 4.99	0.787	7.53	0.92	< 5.30	–	–	0.986	< 4.99	–	–	0.974	< 5.00	0.982	< 5.70
MDA-MB-468 (breast, adherent)	0.952	< 4.99	0.523	8.34	–	–	0.976	< 5.29	0.912	< 4.99	0.284	4.20	0.911	< 5.00	0.966	< 5.70
NCI-H2030 (lung adenocarcinoma, adherent)	0.922	< 4.99	–	–	0.881	< 5.30	0.934	< 5.29	0.879	< 4.99	0.817	2.58	0.976	< 5.00	0.922	< 5.70
NCI-H2110 (non-small cell lung carcinoma, adherent)	0.953	< 4.99	–	–	0.97	< 5.30	0.89	< 5.29	0.804	5.28	0.749	2.88	0.96	< 5.00	0.943	< 5.70
OVCAR-8 (ovary, adherent)	0.986	< 4.99	–	–	0.875	5.39	0.926	< 5.29	0.968	< 4.99	0.755	2.91	0.956	< 5.00	0.974	< 5.70
RPMI-8226 (myeloma, suspension)	0.861	5.16	0.659	7.99	0.987	< 5.30	–	–	0.978	< 4.99	0.642	3.23	0.959	< 5.00	0.95	< 5.70
SK-MEL-28 (melanoma, adherent)	0.986	< 4.99	0.955	< 7.19	0.986	< 5.30	–	–	0.963	< 4.99	0.861	2.48	0.988	< 5.00	0.933	< 5.70
SNU-407 (large intestine, adherent)	0.982	< 4.99	–	–	0.979	< 5.30	0.933	< 5.29	0.912	< 4.99	0.893	< 2.40	0.877	< 5.00	0.95	< 5.70
SW620 (large intestine, adherent)	0.877	5.08	0.633	8.05	–	–	0.929	< 5.29	0.982	< 4.99	0.82	2.71	0.977	< 5.00	0.985	< 5.70

Source: the supplement of paper PMC4967469
